In ChEMBL document CHEMBL4888484, “Replenishing the malaria drug discovery pipeline: Screening and hit evaluation of the MMV Hit Generation Library 1 (HGL1) against asexual blood stage Plasmodium falciparum ,using a nano luciferase reporter read-out” (2022):
Among all 150,000 compounds or so, about 540 (0.36%) showed an effect of 50% or more. The list shows a part of the results.

Each molecule was assayed on Plasmodium falciparum (assay: Primary screen in NF54 nanoGlo assay, in single point, at 2uM, 72h; a lower Z score goes with more inhibition). Conditions: timepoint 72 hour.
Format: functional, Erythrocyte

Q: What does the source list for `Cc1ccc(C2=NN(C(=O)CN3CCN(Cc4ccccc4)CC3)[C@H](c3cccn3C)C2)cc1C`?
A: % Inhibition: -4%; Z score: 0.45

Q: Which “% Inhibition” value does the source give for `CC(Cn1cncn1)NS(=O)(=O)N(C)C(C)C1CC1` (stereo unspecified) here?
A: -8%

Q: What about the Z score of the same molecule?
A: 0.72

Q: With `CCN1C(=O)N(CC)C2(O)c3ccccc3C(=O)C12O` (stereo unspecified) as the molecule, how does the “% Inhibition” value read?
A: 3%

Q: What about the Z score of the same molecule?
A: -0.36

Q: `CC(C)CCNC(=O)c1ccc(Br)cc1Br` was tested. Which “% Inhibition” value did it give?
A: 3%

Q: And the Z score?
A: -0.44

Q: `O=C(Nc1c(Cl)cncc1Cl)c1cc(C2CC2)no1` was tested. Which “% Inhibition” value did it give?
A: -6%

Q: And the Z score?
A: 1.2

Q: With `CO[C@@]12CC[C@@H](NC(=O)c3ccncc3)C[C@@H]1N(C(=O)c1cnc(O)cn1)CC2` as the molecule, how does the “% Inhibition” value read?
A: -11%

Q: What about the Z score of the same molecule?
A: 2.2

Q: For `CC(C)n1ncnc1CNS(=O)(=O)C[C@H]1CCCO1`, which “% Inhibition” value is on record?
A: -12%

Q: And the Z score?
A: 2.29

Q: Which “% Inhibition” value does the source give for `O=C(CN1C(=O)C(=O)c2ccccc21)c1ccccc1` here?
A: 7%

Q: And the Z score?
A: -0.91

Q: With `CCOC1CC(NC(=O)c2nc(=O)[nH][nH]2)C1(CC)CC` (stereo unspecified) as the molecule, how does the “% Inhibition” value read?
A: 1%

Q: What about the Z score of the same molecule?
A: -0.11

Q: How did the “% Inhibition” value turn out when `CC(=C(F)C(=O)N1CCN(c2cnccn2)[C@@H](C)C1)C1CC1` was run?
A: -7%

Q: And the Z score?
A: 1.35

Q: Which results are given for `CC(C)(C)c1nc(CNC(=O)Nc2cccs2)no1`?
A: % Inhibition: -6%; Z score: 1.13

Q: For `CC1CCCC(C)N1S(=O)(=O)c1ccc(NC(=O)c2cnccn2)cc1` (stereo unspecified), which “% Inhibition” value is on record?
A: -4%

Q: And the Z score?
A: 0.5

Q: Which “% Inhibition” value does the source give for `Cc1ccc(-c2cn3c(n2)CO[C@@H](CNC(C)C)C3)cc1` here?
A: -8%

Q: And the Z score?
A: 0.97

Q: Which “% Inhibition” value does the source give for `COc1ccc2cc3c(nc2c1)N(C(=O)c1ccccc1F)CC3` here?
A: -10%

Q: And the Z score?
A: 1.66

Q: What does the source list for `O=C(CC1C=CCC1)NC1CC(C(=O)O)c2ccccc21` (stereo unspecified)?
A: % Inhibition: 1%; Z score: -0.16

Q: With `CCOc1ccc(CN(C)C[C@H]2CCOC2)cn1` as the molecule, how does the “% Inhibition” value read?
A: -13%

Q: And the Z score?
A: 1.84

Q: For `Cc1ccc(CCN2C(=O)CC[C@@H]3CN(C(=O)c4ccc[nH]4)CC[C@@H]32)o1`, which “% Inhibition” value is on record?
A: -6%

Q: What about the Z score of the same molecule?
A: 0.99

Q: Which “% Inhibition” value does the source give for `Cc1cnc(C2CCN(C(=O)c3cc4ccccc4[nH]3)CC2)n1CCO` here?
A: 0%

Q: And the Z score?
A: 0.05

Q: `CCn1ncc2c1CCCC2NC(C)C(=O)NCCCOC` (stereo unspecified) was tested. Which “% Inhibition” value did it give?
A: 5%

Q: What about the Z score of the same molecule?
A: -0.89

Q: What does the source list for `Cc1nnc2sc(-c3ccc(NC(=O)c4sc5ccccc5c4Cl)cc3)nn12`?
A: % Inhibition: -4%; Z score: 0.56

Q: With `CCN(CC)c1n[nH]c(NCc2ccoc2C)c1C#N` as the molecule, how does the “% Inhibition” value read?
A: -7%

Q: What about the Z score of the same molecule?
A: 1.11

Q: For `Cc1ccc(F)c(N2CCC(NC(=O)CC3OCCCO3)CC2)c1`, which “% Inhibition” value is on record?
A: -4%

Q: What about the Z score of the same molecule?
A: 0.54

Q: Which “% Inhibition” value does the source give for `Cc1ccc2sc(N(Cc3ccccc3)C(=O)CN3CCOCC3)nc2c1C` here?
A: -15%

Q: And the Z score?
A: 2.75

Q: With `CCCc1cc(C(=O)NCc2cccnc2N2CCN(C)CC2)ccn1` as the molecule, how does the “% Inhibition” value read?
A: 3%

Q: And the Z score?
A: -0.33

Q: What does the source list for `COc1ccc(C[C@H](N)C(=O)Nc2ccccc2CN2CCCCC2)cc1`?
A: % Inhibition: -4%; Z score: 0.62

Q: `Cc1ccc(-c2noc(CCN(C(=O)c3ccco3)C3CCCCC3)n2)cc1Cl` was tested. Which “% Inhibition” value did it give?
A: -9%

Q: And the Z score?
A: 1.11

Q: Which results are given for `Cc1ccc2[nH]c(-c3nc(CCN(C)C(=O)C4CCC4)no3)cc2c1`?
A: % Inhibition: -14%; Z score: 2.61

Q: With `NC(=O)COc1cccc([C@H]2CC(O)=Nc3c2ncn3-c2ccc(Cl)cc2)c1` as the molecule, how does the “% Inhibition” value read?
A: 31%

Q: What about the Z score of the same molecule?
A: -3.53

Q: What does the source list for `NC(=O)NCC(=O)N1CCN(c2c(F)c(F)c(F)c(F)c2F)CC1`?
A: % Inhibition: -4%; Z score: 0.53

Q: For `CN1C[C@@H]2CC[C@H]1CN(C(=O)CCCOc1ccccc1)C2`, which “% Inhibition” value is on record?
A: -11%

Q: And the Z score?
A: 1.74

Q: Which “% Inhibition” value does the source give for `Cc1ccc(Oc2nc(N3CCC(C)CC3)nc3c2CN(Cc2sccc2C)CC3)cc1` here?
A: -3%

Q: And the Z score?
A: 0.6

Q: Which results are given for `Cc1nc(N2C[C@@H](C)N(CCO)[C@@H](C)C2)ccc1C#N`?
A: % Inhibition: -1%; Z score: 0.11

Q: What does the source list for `Cc1ncsc1CN1CC[C@H](CO)[C@H](NC(=O)c2cccnc2)C1`?
A: % Inhibition: -5%; Z score: 0.7

Q: What does the source list for `O=C(c1ccc(=O)[nH]n1)N1CC[C@H](Oc2ccncn2)C1`?
A: % Inhibition: -8%; Z score: 1.3

Q: What does the source list for `Cc1ccc(-n2nc(CC(C)C)nc2-c2ccnnc2)cc1C`?
A: % Inhibition: -9%; Z score: 1.63

Q: What does the source list for `CC[C@H](NC(=O)NCCc1cn2c(n1)CCCC2)c1nc(C)cs1`?
A: % Inhibition: -8%; Z score: 1.08

Q: For `Cc1ccc2c(c1)[C@@H](NC(=O)c1oc(CC(C)C)nc1C)CO2`, which “% Inhibition” value is on record?
A: 1%

Q: What about the Z score of the same molecule?
A: -0.11

Q: Which results are given for `CCC(CC)(CCO)CNC(=O)NC1CC1`?
A: % Inhibition: -9%; Z score: 1.2

Q: Which “% Inhibition” value does the source give for `CCOC(=O)C1CN(S(=O)(=O)c2ccccc2)C1` here?
A: 36%

Q: What about the Z score of the same molecule?
A: -4.59

Q: Which results are given for `CCN(CC)CCNc1cccc(C(F)(F)F)c1`?
A: % Inhibition: -1%; Z score: 0.15

Q: How did the “% Inhibition” value turn out when `O=C(Cc1ccc2c(c1)OCO2)N1CCN(c2nccs2)C(=O)C1` was run?
A: 22%

Q: And the Z score?
A: -2.74

Q: For `CC(=O)NCc1nccc(N2CCCCC2)n1`, which “% Inhibition” value is on record?
A: -6%

Q: And the Z score?
A: 0.89

Q: For `CO[C@@]12CC[C@@H](NC(=O)CC(C)C)C[C@@H]1N(C(=O)Cc1cccs1)CC2`, which “% Inhibition” value is on record?
A: -3%

Q: What about the Z score of the same molecule?
A: 0.42
